# Among all 350,000 compounds or so, about 31,000 (8.9%) were called active. Inconclusive means that the source gave no clear call. Such entries were picked first, then a sample of the others. The call rests on the fitted dose curve; in most records, active means well fitted inhibition curve with a large enough effect; inconclusive means small, poorly fitted or top-dose-only effect; inactive means no such curve, though single readings can be large or run the other way. Potencies beside an inconclusive call are fits to weak or partial responses and may not hold up.
# Biological target: Histone-lysine N-methyltransferase EHMT2 (Homo sapiens) (UniProt Q96KQ7)
# Assay: qHTS Assay for Inhibitors of Histone Lysine Methyltransferase G9a; further: nearly all actives have a fitted effect of over 75% in size
# Conditions: G9a H3K9 monomethylation, AlphaScreen, 2 h; activity, negative = inhibition: at 59 µM (top of the series) unless noted
# Procedure, shortened: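 Enzyme 20 nM + cpd, 15 min RT; add b-H3K9 pep 500 nM / SAM 20 uM; 2 h RT; anti-H3K9me1 Ab 0.5 ug/mL + SA donor / anti-rabbit acceptor beads 20 ug/mL each, 10 min; AlphaScreen read.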
# On the % scale 0 is the no-effect control and ±100 the full control effect; potency means the concentration at half of the fitted maximal effect; tags describe the fitted curve by direction and shape.
# Chain of UniProt Q96KQ7 (Q96KQ7 whole entry, looked up): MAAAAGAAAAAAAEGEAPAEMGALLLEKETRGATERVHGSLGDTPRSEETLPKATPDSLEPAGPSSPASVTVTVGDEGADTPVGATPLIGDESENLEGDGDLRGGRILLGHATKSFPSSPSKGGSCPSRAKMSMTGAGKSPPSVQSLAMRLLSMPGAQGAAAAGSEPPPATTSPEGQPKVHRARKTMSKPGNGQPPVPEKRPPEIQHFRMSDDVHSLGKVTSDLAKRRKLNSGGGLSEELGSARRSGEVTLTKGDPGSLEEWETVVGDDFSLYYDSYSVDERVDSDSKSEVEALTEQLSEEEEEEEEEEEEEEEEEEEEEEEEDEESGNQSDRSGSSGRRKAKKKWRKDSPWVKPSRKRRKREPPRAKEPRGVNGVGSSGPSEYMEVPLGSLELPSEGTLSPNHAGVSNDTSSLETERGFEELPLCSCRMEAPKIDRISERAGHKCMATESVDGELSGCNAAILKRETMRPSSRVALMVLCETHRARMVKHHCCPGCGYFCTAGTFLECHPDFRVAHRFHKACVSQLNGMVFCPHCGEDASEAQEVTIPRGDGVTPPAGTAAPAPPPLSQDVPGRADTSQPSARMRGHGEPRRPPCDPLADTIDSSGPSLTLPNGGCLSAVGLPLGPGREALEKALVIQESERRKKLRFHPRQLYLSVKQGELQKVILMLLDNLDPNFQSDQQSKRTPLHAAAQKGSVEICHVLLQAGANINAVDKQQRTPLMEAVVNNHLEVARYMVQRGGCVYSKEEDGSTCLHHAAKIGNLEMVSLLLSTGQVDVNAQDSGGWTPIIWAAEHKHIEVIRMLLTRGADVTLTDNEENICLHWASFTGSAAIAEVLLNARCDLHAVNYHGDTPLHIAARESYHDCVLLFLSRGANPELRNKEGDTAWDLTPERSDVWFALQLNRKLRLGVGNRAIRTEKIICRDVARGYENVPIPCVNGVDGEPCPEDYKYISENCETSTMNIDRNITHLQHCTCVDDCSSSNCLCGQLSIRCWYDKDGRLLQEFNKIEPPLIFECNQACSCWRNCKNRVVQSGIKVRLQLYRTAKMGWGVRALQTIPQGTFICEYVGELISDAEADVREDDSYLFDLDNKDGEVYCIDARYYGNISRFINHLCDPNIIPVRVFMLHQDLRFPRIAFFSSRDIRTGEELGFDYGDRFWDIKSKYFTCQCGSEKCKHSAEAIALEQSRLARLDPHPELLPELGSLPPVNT
SMILES,Potency,"activity, negative = inhibition"
CCN(CC)CCNC(CC(=O)Nc1ccc(Cl)cc1Cl)C(=O)O (stereo not given),active: 8.91 µM,–
CCOC(=O)c1ccc(NC(=O)CSc2nc3c(c(=O)n2CC)SC(C)C3)cc1 (stereo not given),"inconclusive: 50.1 µM [inhibitor, partial curve]",–
COc1ccc(C)c2sc(NC(=O)c3ccc(S(=O)(=O)N4CCCCC4)cc3)nc12,"inconclusive: 39.8 µM [inhibitor, partial curve, poor fit]",–
CCN(CC)C(=O)Cn1cc(C(=O)C2CC2)c2ccccc21,inactive,–
CCCCN(CCCC)CCCNC(=O)C1CC(c2ccc(C(F)(F)F)cc2)=NO1 (stereo not given),inactive,–
O=[N+]([O-])c1ccccc1/C=N/N1CCN(c2ccc(Cl)cc2)CC1,active: 17.8 µM,–
COc1ccc(N2CC(NC(=O)COc3ccccc3F)CC2=O)cc1OC (stereo not given),inactive,–
COc1ccc(C2CC(c3ccc(Br)cc3)Nc3nc(N)nn32)cc1 (stereo not given),"inconclusive: 89.1 µM [inhibitor, partial curve, poor fit]",–
O=C(c1ccccc1)c1nn(-c2ccccc2)c2nnc(Cc3ccccc3)c(=O)n12,active: 10 µM,–
Cc1[nH]c2c(Br)cccc2c1[C@H]1[C@@H](CC#N)C1(C)C,–,inconclusive: -55.6% [inhibitor]
O=C(O)C(Cc1c[nH]c2ccccc12)NS(=O)(=O)c1ccc(Br)cc1 (stereo not given),"inconclusive: 44.7 µM [inhibitor, partial curve]",–
CC1(C)Cc2c(sc3c2C2=NCCN2C=N3)CS1,"inconclusive: 79.4 µM [inhibitor, single point]",–
COc1ccccc1CNC(=O)CN(c1cccc([N+](=O)[O-])c1)S(C)(=O)=O,"inconclusive: 50.1 µM [inhibitor, partial curve, poor fit]",–
CCOC(=O)C1=C(C)N=c2s/c(=C\C(=O)OC)c(=O)n2C1c1ccc(OC)cc1 (stereo not given),–,inconclusive: -107% [inhibitor]
CCOc1ncccc1C(=O)OCc1ccc(C(=O)OC)cc1,"inconclusive: 0.158 µM [inhibitor, full curve, poor fit]",–
CC(=O)N1c2ccc(S(=O)(=O)NCC3CCC(C(=O)N4CCCCC4)CC3)cc2CC1C (stereo not given),inactive,–
Cc1ccc(C(NC(=O)C2CCCCC2)c2c(O)ccc3ccccc23)cc1 (stereo not given),"inconclusive: 17.8 µM [inhibitor, single point]",–
CC(=O)OCC(=O)Nc1ccc(C(C)=O)cc1,–,inactive: 34.6% [at 0.501 µM]
CCN1CCN(C(=O)c2ccc(NS(=O)(=O)c3ccccc3)cc2)CC1,–,inconclusive: -58.8% [inhibitor]
Cc1cc(N2CCN(c3ccc(F)cc3)CC2)nc2cc(O)ccc12,active: 79.4 µM,–
Cc1nc(S(=O)(=O)N2CCN(c3ccc(Cl)cc3)CC2)cn1C,inactive,–
CCOC(=O)C1(C)/C(=N/Nc2ccccc2OC)C(=O)C(=O)N1c1ccccc1 (stereo not given),active: 4.47 µM,–
CCCOc1ccc(/C=C/C(=O)Nc2sc(C)c(C)c2C(=O)OCC)cc1OC,active: 3.16 µM,–
Cc1cc(Oc2cc(NN3CCCCC3)c([N+](=O)[O-])cc2[N+](=O)[O-])c(C(=O)c2ccccc2)cc1Cl,"inconclusive: 70.8 µM [inhibitor, partial curve, poor fit]",–

SMILES,Potency,"activity, negative = inhibition"
O=C(CSc1nccc(=O)[nH]1)Nc1ccc(Oc2ccccc2)cc1,"inconclusive: 89.1 µM [inhibitor, single point]",–
O=C(C1CCCO1)N1CCN(c2ccc(F)cc2)CC1 (stereo not given),inactive,–
O=C(COC(=O)c1ccccc1NCCO)NCC1CCCCC1,–,inactive: 12.1% [at 12.7 µM]
O=C(COC(=O)/C=C/c1ccc(Cl)cc1)NCCC1=CCCCC1,"inconclusive: 0.398 µM [inhibitor, partial curve, poor fit]",–
CCCCn1c(N)c(NCc2ccccc2)c(=O)[nH]c1=O,"inconclusive: 79.4 µM [inhibitor, single point]",–
COC(=O)c1cc(NC(=O)Nc2ccc3snnc3c2)cc(C(=O)OC)c1,"inconclusive: 15.8 µM [inhibitor, partial curve, poor fit]",–
COc1ccc(N(CC(=O)Nc2ccc(C)c(C)c2)S(=O)(=O)c2ccc(C)cc2)cc1OC,inactive,–
Cc1ccc(C#N)c(SCc2ccccc2[N+](=O)[O-])n1,"inconclusive: 39.8 µM [inhibitor, single point]",–
COc1ccccc1NCC(=O)Nc1cc(S(=O)(=O)N2CCOCC2)ccc1N1CCOCC1,"inconclusive: 15.8 µM [inhibitor, partial curve, poor fit]",–
Cn1cc2cc([N+](=O)[O-])ccc2n1,inactive,–
Cc1cc(NC(=O)CSc2ccc3nnc(-c4cccnc4)n3n2)no1,"inconclusive: 89.1 µM [inhibitor, single point]",–
Cc1ccnc(NC(=O)C2CCN(S(=O)(=O)c3cccc(C(F)(F)F)c3)CC2)c1,inactive,–
CCNC(=O)COC(=O)CCC(=O)c1cccs1,"inconclusive: 0.355 µM [inhibitor, full curve, poor fit]",–
COC(=O)CSc1ncnc2c1sc1nc(-c3ccco3)c3c(c12)CC(C)(C)OC3,"inconclusive: 3.16 µM [inhibitor, partial curve, poor fit]",–
CCCNC(=O)CCNC(=O)c1ccc(C(C)(C)C)cc1,"inconclusive: 3.98 µM [inhibitor, single point]",–
Cc1ccc(Nc2cc(C)nc3nc(C)nn23)cc1,"inconclusive: 89.1 µM [inhibitor, single point]",–
Cc1ccc(/C=N/NC(=O)c2ccccc2OCc2cccc(Br)c2)o1,active: 25.1 µM,–
Cc1cc(C)nc(SCc2cc(=O)c(OC(=O)c3ccc(Cl)c([N+](=O)[O-])c3)co2)n1,"inconclusive: 44.7 µM [inhibitor, partial curve, poor fit]",–
C=C(C)CNC(=S)Nc1cccc(N)n1,active: 1.26 µM,–
Cc1ccc(C(=O)NCCc2c[nH]c3ccccc23)c(C)c1,inactive,–
O=C(COc1ccccc1)Nc1sc2c(c1C(=O)Nc1ccccc1Cl)CCCCC2,"inconclusive: 39.8 µM [inhibitor, partial curve, poor fit]",–
COc1ccc(C(=S)N2CCOCC2)cc1OC(=O)c1ccc([N+](=O)[O-])cc1[N+](=O)[O-],active: 39.8 µM,–
CCOc1ccc(NC(=O)CCN2CCN(S(=O)(=O)c3cc(Cl)ccc3OC)CC2)cc1,"inconclusive: 89.1 µM [inhibitor, single point]",–
CC(=O)OCc1cc(=O)n2nc(C3CCCCC3)sc2n1,inactive,–

SMILES,Potency,"activity, negative = inhibition"
COc1ccc(NC(=O)C2CCN(C(=O)C3CC(=O)N(c4ccc(C)cc4)C3)CC2)c(OC)c1 (stereo not given),inactive,–
O=C(Oc1cc2oc(=O)c3c(c2cc1Cl)CCCC3)c1ccco1,–,inactive: 1.93% [at 12.7 µM]
COc1ccc(-c2nnc(SCc3cc(C)ccc3C)n2N)cc1,–,inactive: -5.27% [at 12.7 µM]
COC(=O)[C@@]1(Cc2ccc(F)cc2)[C@H]2c3cc(C(=O)N(C)C)n(Cc4c(CO)[nH]cc(C)c4=O)c3C[C@H]2CN1C(=O)c1ccccc1,"inconclusive: 56.2 µM [inhibitor, partial curve, poor fit]",–
COC(=O)C1C(=O)c2c([nH]c(C(=O)OC3CCCC3C)c2C)CC1C (stereo not given),"inconclusive: 5.62 µM [inhibitor, single point]",–
CC(C)c1ccccc1NC(=O)CNCCOc1ccccc1F,inactive,–
COC(=O)c1cc(NC2c3ccccc3C(=O)N2CCN2CCOCC2)cc(C(=O)OC)c1 (stereo not given),"inconclusive: 89.1 µM [inhibitor, single point]",–
Cc1ccccc1-c1noc(-c2ccc(N3CCN(c4ccccc4)CC3)c([N+](=O)[O-])c2)n1,inactive,–
CCOCCCNCC(=O)Nc1ccccc1N1CCOCC1,active: 11.2 µM,–
CCN(CCCNC(=O)c1c(C)cc(=O)oc1C)c1cccc(C)c1,active: 12.6 µM,–
CCS(=O)(=O)Nc1ccc(NC(C)=O)cc1,"inconclusive: 10 µM [inhibitor, partial curve, poor fit]",–
Cn1cc(/C=N\O)nc2c(=O)n(-c3ccccc3)c(=O)nc1-2,"inconclusive: 28.2 µM [inhibitor, partial curve]",–
CC12CCC(=O)N1C(C(=O)Nc1nc(-c3ccccc3Cl)cs1)CS2 (stereo not given),active: 50.1 µM,–
COc1ccc(CNC(=O)Cn2nc(C)n3cccc3c2=O)cc1,inactive,–
CC(=O)c1ccc(NC(=O)[C@@]2(CC(=O)O)CC(/C=C/c3ccccc3)=NO2)cc1,"inconclusive: 0.316 µM [inhibitor, partial curve, poor fit]",–
COc1ccccc1N1CCN(C(=O)c2cc3c(=O)n(C)c4ccccc4c3s2)CC1,inactive,–
CCSc1nnc2ccc(-c3ccco3)nn12,"inconclusive: 56.2 µM [inhibitor, partial curve, poor fit]",–
Cc1nc(-c2cccc(S(=O)(=O)N3CCOCC3)c2)cs1,–,inconclusive: -89.8% [inhibitor]
O=C(NCCn1ccc2ccccc21)c1ccc(S(=O)(=O)N2CCCCC2)cc1,"inconclusive: 39.8 µM [inhibitor, partial curve, poor fit]",–
Cc1ccc(C2C=C(c3ccccc3)Nc3nc(N4C(=O)CCC4=O)nn32)cc1 (stereo not given),"inconclusive: 17.8 µM [inhibitor, full curve, poor fit]",–
COc1ccc(-c2nn(CCC(=O)O)cc2/C=C2\SC(N)=NC2=O)cc1OC,"inconclusive: 89.1 µM [inhibitor, single point]",–
Cc1sc2nc(COC(=O)c3ccc(N4CCCC4)c([N+](=O)[O-])c3)[nH]c(=O)c2c1C,"inconclusive: 15.8 µM [inhibitor, single point]",–

# — PubChem BioAssay AID504332 (National Center for Advancing Translational Sciences (NCATS), 2011)
